The supplement of paper PMC12217912
This is one part of the list. Sequences were assembled here from the parent chain. Inactive controls read about 0.05.

B1: TEV protease; numbered along this chain (parent)
chain: MGESLFKGPRDYNPISSSICHLTNESDGHTTSLYGIGFGPFIITNKHLFRRNNGTLVVQSLHGVFKVKDTTTLQQHLVDGRDMIIIRMPKDFPPFPQKLKFREPQREERICLVTTNFQTKSMSSMVSDTSCTFPSGDGIFWKHWIQTKDGQCGSPLVSTRDGFIVGIHSASNFTNTNNYFTSVPKNFMELLTNQEAQQWVSGWRLNADSVLWGGHKVFMVKPEEPFQPVKEATQL

Variants of: B1
Experiment: raw area under fraction-flipped curve 0-4 h after induction (AUC4h, not background-subtracted), DNA-recorder readout of cleavage of the substrate (dimensionless); higher = more cleavage of the substrate by the protease variant
Settings: temperature: 34 °C; time window: 0-4 h after rhamnose induction
Procedure: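 In vivo DNA recorder in E. coli TOP10(DE3) ΔrhaA at 34 °C. Each TEVp single-site mutant (parent TEVp 0) is paired with a single-site variant of the 7-mer TEVs (canonical ENLYFQ|S). The substrate sits between flexible linkers in a Bxb1-sfGFP-TEVs-SsrA fusion, so cleavage stabilises Bxb1 and speeds flipping of a recombination array, read by NGS. The value is the raw area under the fraction-flipped curve over 0-4 h after rhamnose induction (AUC4h), with ≥20 reads per time point. It is not background-subtracted; inactive controls average about 0.047.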
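Also: Bxb1 expression induced with 0.2% (w/v) L-rhamnose at OD600 near 0.5, cultures sampled hourly, flipped fraction per protease–substrate barcode pair counted by paired-end Illumina sequencing.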

Variant | area with substrate ENAYFQS | area with substrate ENCYFQS | area with substrate ENEYFQS | area with substrate ENFYFQS | area with substrate ENHYFQS | area with substrate ENQYFQS | area with substrate ENSYFQS | area with substrate ENTYFQS | area with substrate ENVYFQS | area with substrate ENDYFQS | area with substrate ENGYFQS | area with substrate ENIYFQS | area with substrate ENKYFQS | area with substrate ENMYFQS | area with substrate ENNYFQS | area with substrate ENPYFQS | area with substrate ENRYFQS | area with substrate ENYYFQS | area with substrate ENWYFQS
E3N | 0.0713 | 0.0452 | 0.0796 | 0.0636 | 0.0994 | 0.0661 | 0.144 | 0.0576 | 0.0863 |  |  |  |  |  |  |  |  |  | 
S4L | 0.056 | 0.0685 | 0.0624 | 0.0575 | 0.0639 | 0.0613 | 0.0641 | 0.069 | 0.0647 | 0.0623 | 0.0666 | 0.0671 | 0.0479 | 0.0728 | 0.0636 | 0.0625 | 0.0544 | 0.0602 | 
L5D | 0.0691 |  | 0.0627 | 0.0514 |  | 0.0626 | 0.0528 |  |  | 0.0592 | 0.0534 |  |  |  |  |  |  |  | 
G8M | 0.0485 | 0.0673 |  |  |  | 0.0458 |  |  |  | 0.0563 |  |  | 0.0741 |  | 0.0581 |  | 0.0575 |  | 
G8W | 0.0688 | 0.0616 | 0.0612 | 0.0613 |  | 0.0618 | 0.0832 | 0.0682 | 0.078 | 0.0534 | 0.066 | 0.087 | 0.0587 |  |  |  | 0.0592 |  | 
D11E | 0.0583 | 0.0713 | 0.0879 | 0.0595 | 0.0628 | 0.0605 | 0.0694 | 0.0727 | 0.0775 | 0.0565 |  | 0.127 | 0.0623 | 0.0781 | 0.0643 | 0.0698 | 0.0592 | 0.0576 | 0.0499
Y12A | 0.0568 | 0.0621 | 0.0547 | 0.0595 | 0.0909 | 0.0661 | 0.0746 | 0.0568 | 0.0693 | 0.0664 | 0.0796 | 0.129 | 0.0687 | 0.0718 | 0.0628 |  | 0.0388 | 0.0682 | 0.038
Y12I | 0.0462 | 0.066 | 0.0655 |  | 0.0627 | 0.0545 | 0.0634 | 0.0596 | 0.0702 | 0.0596 | 0.0817 | 0.0982 | 0.0622 | 0.0904 | 0.0511 | 0.0595 | 0.0529 | 0.0605 | 0.0688
Y12Q | 0.035 | 0.0587 | 0.0601 | 0.0519 | 0.0719 | 0.0627 | 0.0596 | 0.0754 | 0.0828 | 0.062 |  | 0.127 | 0.09 | 0.084 | 0.0633 | 0.0702 | 0.0552 |  | 
Y12V | 0.0598 | 0.0566 | 0.0651 |  |  | 0.0612 | 0.061 | 0.0668 | 0.083 | 0.0649 | 0.0584 | 0.0935 | 0.0569 |  | 0.0612 |  | 0.0532 | 0.0696 | 
N13C | 0.0654 | 0.0594 | 0.0723 | 0.0485 | 0.066 | 0.0608 | 0.0713 | 0.0713 | 0.0823 | 0.0659 | 0.0598 | 0.114 | 0.0498 | 0.0717 | 0.0538 | 0.0602 | 0.0529 | 0.0675 | 0
N13Q | 0.0545 | 0.0715 | 0.0631 | 0.0593 | 0.0597 | 0.0551 | 0.055 |  | 0.0919 | 0.0566 | 0.061 | 0.116 |  | 0.0944 | 0.058 | 0.0674 |  | 0.0563 | 0.0629
I15F | 0.0605 | 0.0646 | 0.0623 | 0.0603 |  | 0.0595 | 0.0625 | 0.0641 | 0.0729 | 0.0574 | 0.0613 | 0.0946 | 0.0691 | 0.0883 | 0.0406 | 0.0463 |  | 0.0496 | 
I15L | 0.0422 | 0.0577 | 0.0629 | 0.0677 | 0.0607 | 0.0577 | 0.0684 | 0.0681 | 0.0762 | 0.0575 | 0.0753 | 0.0777 | 0.0588 | 0.0846 | 0.0395 | 0.0633 | 0.0616 | 0.0651 | 
I15N | 0.0555 | 0.0485 | 0.0665 | 0.0726 | 0.0538 | 0.0204 | 0.0464 | 0.0475 | 0.0672 | 0.055 | 0.0652 | 0.0764 | 0.0609 | 0.0719 | 0.0555 |  |  | 0.0527 | 
S16F | 0.07 | 0.0625 | 0.0597 | 0.0701 |  | 0.055 | 0.0626 | 0.0591 |  | 0.0609 |  | 0.121 | 0.0685 | 0.0736 | 0.0697 | 0.0529 | 0.0564 | 0.0746 | 0.0071
S16K | 0.0521 | 0.0763 | 0.0457 | 0.0687 | 0.0533 | 0.0616 | 0.0822 | 0.0595 |  | 0.0655 | 0.0544 |  |  | 0.0743 | 0.049 |  |  | 0.0408 | 
S17C | 0.101 | 0.0651 | 0.0703 | 0.0601 | 0.0396 | 0.0597 | 0.0673 | 0.0694 | 0.0681 | 0.0474 | 0.0977 | 0.136 | 0.0627 | 0.0536 | 0.0713 | 0.0562 | 0.0556 |  | 0.0568
S17G | 0.0652 | 0.0884 | 0.0539 | 0.0461 | 0.0576 | 0.0594 | 0.0546 | 0.0691 | 0.0765 | 0.0596 | 0.0515 | 0.113 |  | 0.0661 | 0.0562 | 0.0537 | 0.0535 | 0.0562 | 
S18M | 0.0692 | 0.0687 | 0.0771 | 0.0482 |  | 0.0548 |  | 0.0694 | 0.0723 | 0.0637 | 0.0579 | 0.121 |  |  |  |  | 0.0671 |  | 
S18N | 0.0878 | 0.0675 | 0.0638 | 0.0565 | 0.0557 | 0.0784 | 0.0594 | 0.0593 | 0.0819 | 0.064 | 0.0665 |  |  |  |  |  | 0.0654 |  | 0.0486
S18T | 0.0585 | 0.0492 | 0.0251 | 0.0611 |  | 0.052 |  | 0.0571 |  |  | 0.0688 | 0.084 |  | 0.0633 |  | 0.0796 | 0.0535 |  | 0.0541
I19G | 0.0603 | 0.0504 | 0.0547 | 0.078 | 0.0499 | 0.0558 | 0.0572 |  | 0.0567 | 0.0471 | 0.0564 |  | 0.0539 | 0.0239 | 0.0513 | 0.0658 | 0.0443 |  | 0.0038
